Reference: the supplement of paper PMC3334620
In all, about 33,000 sequences were measured (“E-score (-0.5 to 0.5)”: median about -0.01, highest 2% from about 0.26 on). Some of the results follow.

Biological target: Ste12 (UniProt P13574)
Experiment: PBM E-score (8-mer binding enrichment) (E-score (-0.5 to 0.5)); higher = stronger / more preferred TF binding; most listed sequences are background and not binding sites
Settings: protein concentration: 200 nM; construct: GST-DNA-binding domain
In short: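 Bound GST-tagged yeast transcription factors, applied at about 100-200 nM to double-stranded universal all-10-mer Agilent arrays, were detected with fluorescent anti-GST. Scans were normalised with masliner. A modified Wilcoxon-Mann-Whitney statistic, the E-score, was assigned to each ungapped eight-base word pooled with its reverse complement by the Universal PBM Analysis Suite.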

Sequence | PBM E-score
CAATTGAA | 0.187
ACTACCTC | -0.0451
GTAAGCTA | -0.12
CAAACAAC | 0.223
ATAAACCC | 0.211
ACTTCTGA | 0.184
GGGGATGA | 0.0572
CCCACACA | 0.126
ACGACCTG | -0.165
TAAGCCGA | 0.106
AAGTGAGC | -0.175
ACTTACCC | 0.129
ACTTCGTA | -0.0272
AGCGTCAG | -0.255
CCTGATGA | 0.0374
AAGAATCG | 0.0677
GACAACGC | 0.0429
CCGTACAA | 0.0532
CGAGCCAG | -0.0693
ACACTGGT | -0.0637
ATAACGTG | -0.147
AATCCACC | -0.077
ACTGTACG | -0.215
CAAGCCAG | -0.0827
AGCCTATC | -0.0224

Sequence | PBM E-score
CAAATGGA | -0.153
ATTTTGAG | 0.174
CGGTCACC | -0.188
AGCGGGCA | -0.114
CAGTTGCG | -0.107
AAGCTAAA | 0.0582
ACAGTTTG | 0.016
AACCGCCT | -0.0784
ACGATTAT | 0.0501
AGCAGGTG | -0.0318
AACAGCTC | -0.0228
GCGCCCCA | 0.056
TAAGTAAA | 0.0776
AGGAAATG | 0.0773
AAAGTTAG | 0.157
ATGTCGCC | 0.00748
CATACCAG | -0.0507
GCTGGTTA | 0.0452
ATATGAAG | 0.0351
CACTAGCC | -0.0332
ATGTGCAA | 0.125
CACAAAAA | 0.23
CTACCGGC | -0.196
ACCTTGCG | -0.041
AGAGTCCA | -0.0783

Sequence | PBM E-score
ATTCGGTG | 0.025
AAGCTACT | -0.138
GACTGACA | 0.0146
AAATCCGT | 0.0418
GACTCTCC | -0.109
CAAAGAAA | 0.214
TTCCGGAA | 0.12
CTGCAAGA | 0.012
ATAACCAT | -0.00569
ACCCCATG | 0.178
GACAGAAC | 0.133
ATTATCGG | -0.0839
GGGAGTCA | -0.0761
ACCCCGGG | -0.135
GCTCCATA | 0.0209
CGTGCTCC | -0.026
AGAACTCG | -0.0556
CAGGTTTC | 0.361
CCGGGTTA | -8e-05
CGTTCTGA | -0.0774
GCAGTTCA | -0.0553
AAGACCGA | 0.165
AGCGCTAT | 0.0744
ATTCCTAC | -0.0434
AAGTCAAT | 0.0436

Sequence | PBM E-score
ATTATCCG | 0.294
GTGTGCCA | -0.182
CTGTGAGA | -0.0675
AAGCGCTC | -0.0384
CGTTACTA | -0.0651
CCGGAGGC | -0.25
CTCTCACA | 0.0112
AGTCACGA | -0.0773
CGGCAATC | 0.0113
CGCATGGC | -0.0645
GAAAGACA | 0.0466
AGAGCAAC | -0.0539
AGTATTTG | 0.0776
GATGACGC | -0.0788
AACGTTAT | 0.122
ATTGCGGG | 0.0749
CCGGATCG | -0.0727
ACGTAACT | -0.0636
GGTCGGGA | 0.0802
CTCATTCC | 0.0499
ACATACCA | -0.0644
TAATGGTA | -0.00079
CCTCCCAC | 0.0349
GTCTAGAC | -0.267
TAATTGCA | 0.134

Sequence | PBM E-score
ATACCGCC | 0.122
GTCTTGTA | -0.125
ATCTGGCC | -0.067
CGCTATTC | 0.0426
AATGCCTC | 0.125
CAGCCGTC | -0.0959
ATTGTATG | 0.0268
ACGAGTTA | 0.1
CCCCAAGA | -0.0289
GCAGCTTA | -0.0835
AAATTGTA | 0.048
TAGTAACA | 0.0567
CTCCATGA | 0.124
AAGCGTAA | -0.0822
GAGACTTA | 0.00211
AGCCATAA | 0.0455
AGACATCC | -0.0397
CATTTTAC | 0.254
ATTCATTC | 0.239
AGGCCCCT | -0.149
TACTGCGA | -0.117
CACGGACA | -0.217
TCAAACGA | 0.157
GACATATA | 0.11
AGCACGAA | 0.0766

Sequence | PBM E-score
CCACCCAC | 0.154
AGTGAGGC | -0.131
GCCTGCTA | -0.173
AGGTTCTC | 0.0357
CTTCGGCA | 0.0217
ACCAAATC | -0.0444
AGATTACC | 0.109
CTTATGCA | -0.00016
GTAAGTAC | -0.0734
CAGCCCGA | -0.0607
ACGCAGCG | -0.0825
AGGTAGTA | 0.00015
GAAGACCA | -0.0927
ATAAGAGC | 0.00898
GAGTAGAA | -0.0928
CGGAAGGC | -0.181
ACGCGGCC | -0.161
ACTCTTCC | -0.0925
AACACTGG | -0.00819
CGATGGAA | -0.0331
ACAGCCAG | -0.178
ATTCATCA | 0.106
TCTAAACA | 0.121
CCTGCTAA | -0.2
GCGCACCA | 0.00849

Sequence | PBM E-score
AGCCGTAA | -0.0314
GAGCAGCC | -0.212
GTATGTCA | 0.235
AAAATTGT | 0.225
CTATGCAG | -0.201
ACAAGATC | -0.12
AAGAGGAT | -0.117
CACCTAGA | -0.163
TACTCGGA | 0.126
AACCTACA | 0.148
GAGGGCAA | 0.161
TACTGGCA | -0.0209
CTTACGAA | 0.0369
AGGAACAC | -0.084
ATGCGACG | 0.0983
AGTCATTC | -0.137
GGACGTCC | -0.0929
CCCCAACC | 0.0625
CTACATCC | -0.0459
CATAAGTC | -0.0556
CAGTACAC | -0.0767
AATAGTGC | 0.0864
